# Measurements published in the supplement of paper PMC8728848.
# The list shows a part of the results.
# B1: L-Selectin (Homo sapiens), P14151 (protein)
# chain: MIFPWKCQSTQRDLWNIFKLWGWTMLCCDFLAHHGTDCWTYHYSEKPMNWQRARRFCRDNYTDLVAIQNKAEIEYLEKTLPFSRSYYWIGIRKIGGIWTWVGTNKSLTEEAENWGDGEPNNKKNKEDCVEIYIKRNKDAGKWNDDACHKLKAALCYTASCQPWSCSGHGECVEIINNYTCNCDVGYYGPQCQFVIQCEPLEAPELGTMDCTHPLGNFSFSSQCAFSCSEGTNLTGIEETTCGPFGNWSSPEPTCQVIQCEPLSAPDLGIMNCSHPLASFSFTSACTFICSEGTELIGKKKTICESSGIWSNPSPICQKLDKSFSMIKEGDYNPLFIPVAVMVTAFSGLAFIIWLARRLKKGKKSKRSMNDPY
# What was measured:
# Assay in all cases: glycan array binding signal (z-score within array); higher = stronger binding
# Conditions in all cases: glycan notation: IUPAC condensed, linker removed
# [1] = molecular target: Neu5Ac(a2-3)Gal(b1-4)[Fuc(a1-3)]GlcNAc
# In short: (§1)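 The binding signal is a Z-score computed within each array. Data were drawn from 3228 arrays in the Consortium for Functional Glycomics database, restricted to those with a known protein sequence. Scores were averaged over arrays of the same protein sequence at different concentrations or buffers, and over linkers, and negative values can be taken as non-binding.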
# [2] = molecular target: Neu5Ac(a2-3)Gal(b1-4)[Fuc(a1-3)]GlcNAc(b1-3)Gal
# In short: as §1
# [3] = molecular target: Neu5Ac(a2-3)Gal(b1-4)[Fuc(a1-3)]GlcNAc(b1-3)Gal(b1-4)GlcNAc
# In short: as §1
# [4] = molecular target: Neu5Ac(a2-3)Gal(b1-4)[Fuc(a1-3)]GlcNAc(b1-3)Gal(b1-4)[Fuc(a1-3)]GlcNAc(b1-3)Gal(b1-4)[Fuc(a1-3)]GlcNAc
# In short: as §1
# [5] = molecular target: Neu5Ac(a2-3)Gal(b1-4)[Fuc(a1-3)]GlcNAc(b1-6)[Gal(b1-3)]GalNAc
# In short: as §1
# [6] = molecular target: Neu5Ac(a2-3)Gal(b1-4)[Fuc(a1-3)]GlcNAc6S
# In short: as §1
# [7] = molecular target: Neu5Ac(a2-3)Gal6S(b1-4)GlcNAc
# In short: as §1
# [8] = molecular target: Neu5Ac(a2-3)Gal6S(b1-4)[Fuc(a1-3)]GlcNAc
# In short: as §1
# Neu5Ac(a2-3)GalNAc = molecular target: Neu5Ac(a2-3)GalNAc
# In short: as §1
# [9] = molecular target: Neu5Ac(a2-3)GalNAc(b1-4)GlcNAc
# In short: as §1
# [10] = molecular target: Neu5Ac(a2-3)[GalNAc(b1-4)]Gal(b1-4)Glc
# In short: as §1
# [11] = molecular target: Neu5Ac(a2-3)[GalNAc(b1-4)]Gal(b1-4)GlcNAc
# In short: as §1
# [12] = molecular target: Neu5Ac(a2-3)[Neu5Ac(a2-6)]GalNAc
# In short: as §1
# Neu5Ac(a2-6)Gal = molecular target: Neu5Ac(a2-6)Gal
# In short: as §1
# Neu5Ac(a2-6)Gal(b1-4)Glc = molecular target: Neu5Ac(a2-6)Gal(b1-4)Glc
# In short: as §1
# [13] = molecular target: Neu5Ac(a2-6)Gal(b1-4)GlcNAc
# In short: as §1
# [14] = molecular target: Neu5Ac(a2-6)Gal(b1-4)GlcNAc(b1-2)Man(a1-3)[Gal(b1-4)GlcNAc(b1-2)Man(a1-6)]Man(b1-4)GlcNAc(b1-4)GlcNAc
# In short: as §1
# [15] = molecular target: Neu5Ac(a2-6)Gal(b1-4)GlcNAc(b1-2)Man(a1-3)[GlcNAc(b1-2)Man(a1-6)]Man(b1-4)GlcNAc(b1-4)GlcNAc
# In short: as §1
# [16] = molecular target: Neu5Ac(a2-6)Gal(b1-4)GlcNAc(b1-2)Man(a1-3)[GlcNAc(b1-2)Man(b1-4)GlcNAc(b1-2)Man(a1-6)]Man(b1-4)GlcNAc(b1-4)GlcNAc
# In short: as §1
# [17] = molecular target: Neu5Ac(a2-6)Gal(b1-4)GlcNAc(b1-2)Man(a1-3)[Neu5Ac(a2-6)Gal(b1-4)GlcNAc(b1-2)Man(a1-6)]Man(b1-4)GlcNAc(b1-4)GlcNAc
# In short: as §1
# [18] = molecular target: Neu5Ac(a2-6)Gal(b1-4)GlcNAc(b1-2)Man(a1-6)[Gal(b1-4)GlcNAc(b1-2)Man(a1-3)]Man(b1-4)GlcNAc(b1-4)GlcNAc
# In short: as §1
# [19] = molecular target: Neu5Ac(a2-6)Gal(b1-4)GlcNAc(b1-2)Man(a1-6)[GlcNAc(b1-2)Man(a1-3)]Man(b1-4)GlcNAc(b1-4)GlcNAc
# In short: as §1
# [20] = molecular target: Neu5Ac(a2-6)Gal(b1-4)GlcNAc(b1-3)Gal(b1-4)GlcNAc
# In short: as §1
# [21] = molecular target: Neu5Ac(a2-6)Gal(b1-4)GlcNAc(b1-3)Gal(b1-4)[Fuc(a1-3)]GlcNAc(b1-3)Gal(b1-4)[Fuc(a1-3)]GlcNAc
# In short: as §1
# [22] = molecular target: Neu5Ac(a2-6)Gal(b1-4)GlcNAc6S
# In short: as §1
# Neu5Ac(a2-6)GalNAc = molecular target: Neu5Ac(a2-6)GalNAc
# In short: as §1
# [23] = molecular target: Neu5Ac(a2-6)GalNAc(b1-4)GlcNAc
# In short: as §1
# Neu5Ac(a2-8)Neu5Ac = molecular target: Neu5Ac(a2-8)Neu5Ac
# In short: as §1
# [24] = molecular target: Neu5Ac(a2-8)Neu5Ac(a2-3)Gal(b1-4)Glc
# In short: as §1
# [25] = molecular target: Neu5Ac(a2-8)Neu5Ac(a2-3)[GalNAc(b1-4)]Gal(b1-4)Glc
# In short: as §1
# [26] = molecular target: Neu5Ac(a2-8)Neu5Ac(a2-8)Neu5Ac
# In short: as §1
# [27] = molecular target: Neu5Ac(a2-8)Neu5Ac(a2-8)Neu5Ac(a2-3)Gal(b1-4)Glc
# In short: as §1
# [28] = molecular target: Neu5Ac(a2-8)Neu5Ac(a2-8)Neu5Ac(a2-3)[GalNAc(b1-4)]Gal(b1-4)Glc
# In short: as §1
# [29] = molecular target: Neu5Ac(a2-8)Neu5Ac(a2-8)Neu5Ac(a2-8)Neu5Ac(a2-3)[GalNAc(b1-4)]Gal(b1-4)Glc
# In short: as §1
# [30] = molecular target: Neu5Ac(b2-6)Gal(b1-4)GlcNAc
# In short: as §1
# Neu5Ac(b2-6)GalNAc = molecular target: Neu5Ac(b2-6)GalNAc
# In short: as §1
# [31] = molecular target: Neu5Ac9Ac(a2-6)Gal(b1-4)GlcNAc
# In short: as §1
# [32] = molecular target: Neu5Gc(a2-3)Gal(b1-3)GlcNAc
# In short: as §1
# [33] = molecular target: Neu5Gc(a2-3)Gal(b1-3)[Fuc(a1-4)]GlcNAc
# In short: as §1
# Neu5Gc(a2-3)Gal(b1-4)Glc = molecular target: Neu5Gc(a2-3)Gal(b1-4)Glc
# In short: as §1
# [34] = molecular target: Neu5Gc(a2-3)Gal(b1-4)GlcNAc
# In short: as §1
# [35] = molecular target: Neu5Gc(a2-3)Gal(b1-4)[Fuc(a1-3)]GlcNAc
# In short: as §1
# [36] = molecular target: Neu5Gc(a2-6)Gal(b1-4)GlcNAc
# In short: as §1
# Neu5Gc(a2-6)GalNAc = molecular target: Neu5Gc(a2-6)GalNAc
# In short: as §1
# [37] = molecular target: Neu5Gc(b2-6)Gal(b1-4)GlcNAc
# In short: as §1
binder,measurement,setting,value
B1,glycan array binding signal (z-score),[1],0.145
same,glycan array binding signal (z-score),[2],-0.314
same,glycan array binding signal (z-score),[3],-0.203
same,glycan array binding signal (z-score),[4],-0.321
same,glycan array binding signal (z-score),[5],-0.1
same,glycan array binding signal (z-score),[6],9.18
same,glycan array binding signal (z-score),[7],-0.202
same,glycan array binding signal (z-score),[8],-0.028
same,glycan array binding signal (z-score),Neu5Ac(a2-3)GalNAc,-0.022
same,glycan array binding signal (z-score),[9],-0.143
same,glycan array binding signal (z-score),[10],-0.363
same,glycan array binding signal (z-score),[11],-0.275
same,glycan array binding signal (z-score),[12],-0.297
same,glycan array binding signal (z-score),Neu5Ac(a2-6)Gal,-0.205
same,glycan array binding signal (z-score),Neu5Ac(a2-6)Gal(b1-4)Glc,-0.132
same,glycan array binding signal (z-score),[13],-0.237
same,glycan array binding signal (z-score),[14],0.151
same,glycan array binding signal (z-score),[15],-0.112
same,glycan array binding signal (z-score),[16],-0.225
same,glycan array binding signal (z-score),[17],-0.319
same,glycan array binding signal (z-score),[18],-0.253
same,glycan array binding signal (z-score),[19],0.096
same,glycan array binding signal (z-score),[20],-0.118
same,glycan array binding signal (z-score),[21],0.132
same,glycan array binding signal (z-score),[22],-0.21
same,glycan array binding signal (z-score),Neu5Ac(a2-6)GalNAc,-0.208
same,glycan array binding signal (z-score),[23],-0.333
same,glycan array binding signal (z-score),Neu5Ac(a2-8)Neu5Ac,-0.193
same,glycan array binding signal (z-score),[24],-0.173
same,glycan array binding signal (z-score),[25],-0.123
same,glycan array binding signal (z-score),[26],0.098
same,glycan array binding signal (z-score),[27],-0.259
same,glycan array binding signal (z-score),[28],-0.314
same,glycan array binding signal (z-score),[29],-0.382
same,glycan array binding signal (z-score),[30],-0.244
same,glycan array binding signal (z-score),Neu5Ac(b2-6)GalNAc,-0.324
same,glycan array binding signal (z-score),[31],0.073
same,glycan array binding signal (z-score),[32],-0.13
same,glycan array binding signal (z-score),[33],2.25
same,glycan array binding signal (z-score),Neu5Gc(a2-3)Gal(b1-4)Glc,0.202
same,glycan array binding signal (z-score),[34],-0.056
same,glycan array binding signal (z-score),[35],0.145
same,glycan array binding signal (z-score),[36],-0.23
same,glycan array binding signal (z-score),Neu5Gc(a2-6)GalNAc,-0.346
same,glycan array binding signal (z-score),[37],-0.247
